From PubChem BioAssay AID686978 (National Center for Advancing Translational Sciences (NCATS), 2013)
Hit rate of the full screen: of about 420,000 compounds, about 64,000 (15%) were called active. Inconclusive results, whose numbers are uncertain, are shown with a selection of clear calls. Calls come from the whole dose curve; as a rule, active = well fitted inhibition curve with a large enough effect; inconclusive = small, poorly fitted or top-dose-only effect; inactive = flat fitted curve, though single readings scatter. No potency is given beside an inconclusive call; the fits are too rough.

Test: qHTS for Inhibitors of human tyrosyl-DNA phosphodiesterase 1 (TDP1): qHTS in cells in absence of CPT; note: nearly all actives have a fitted effect of over 55% in size
Conditions: DT40 Tdp1-/- hTDP1 cells, no CPT, ATP luminescence, 48 h; activity change, negative = growth inhibition: at 46.2 µM (top of the series) unless noted
Procedure, shortened: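 Luminescent ATP content (CellTiter-Glo) served as the growth readout. Knockout chicken DT40 cells expressing human TDP1 were exposed to compounds without camptothecin for a minimum 48 hr at 37 °C.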
% is set by controls: 0 for no effect and ±100 for the full control effect; potency is the fitted concentration of half-maximal effect; tags give direction and shape of the fitted curve.

| SMILES | Potency | activity change, negative = growth inhibition |
| --- | --- | --- |
| COCCNC(=O)c1cc2c(c(-c3cccc(C#Cc4ccc(OC)c(OC)c4)c3)n1)[C@H](CCO)N(S(=O)C(C)(C)C)C2 (stereo partly specified) | inconclusive [inhibitor, single point] |  |
| Cc1nn(C)c(C)c1S(=O)(=O)N(CC(=O)NCCCOC(C)C)c1ccc(C(C)C)cc1 | inconclusive [inhibitor, single point] |  |
| O=C(Nc1cc(N2CCOCC2)ncn1)NC1(C(F)(F)F)Oc2ccccc2O1 | inconclusive [inhibitor, single point] |  |
| O=C(NNC1CC(c2ccccc2)=NN1C(=O)c1ccccc1)c1ccccc1 (stereo unspecified) | active: 23.1 µM |  |
| COc1cccc(CN(C)C(=O)COc2cccc3c2OC(C)(C)C3)c1OC | inconclusive [inhibitor, single point] |  |
| C[C@@H]1CCC[C@H](C)N1 | inactive |  |
| COc1ccc(/C=C/C(=O)OCC(=O)Nc2ncc(Cl)cc2Cl)cc1 | inconclusive [inhibitor, single point] |  |
| O=P(Nc1ccccc1)(Nc1ccccc1)c1ccccc1 | inactive |  |
| CCn1c(SCC(=O)Nc2cccc(C)c2)nc2ccccc2c1=O | inconclusive [inhibitor, single point] |  |
| Cc1c(CCNC(=O)c2c(F)cccc2F)sc2nc(-c3ccc(F)cc3)nn12 | inconclusive [inhibitor, full curve, poor fit] |  |
| Cc1nc2c(sc(=S)n2Cc2ccco2)c(=O)n1CC(=O)Nc1ccc(F)cc1 | inconclusive [inhibitor, single point] |  |
| CCOc1ccc(CCn2c3c(c(=O)[nH]c2=O)C(NC(=O)c2cccc(F)c2)(C(F)(F)F)C(=O)N3)cc1OCC (stereo unspecified) | inactive |  |
| Cc1nc(NC(=S)NC(=O)COc2ccc(Cl)cc2)ccc1Br | inconclusive [inhibitor, single point] |  |
| O=S(=O)(NC1=NCCC1)c1ccc(F)cc1F | inactive |  |
| O=C(COC(=O)Cc1ccc(Cl)c(Cl)c1)Nc1ccc2[nH]c(=O)[nH]c2c1 | inactive |  |
| Cc1noc(C)c1-c1cc(Nc2ccccc2)ncn1 | inconclusive [inhibitor, single point] |  |
| CCOC(=O)[C@H]1[C@H]2COc3ccc(Cl)cc3[C@H]2N2C(=O)CNC(=O)[C@@]12C | inactive |  |
| CCCCCn1c(N2CCCC2)nc2c1c(=O)n(C)c(=O)n2C | inconclusive [inhibitor, single point] |  |
| Cc1cc(O)cc(C)c1Cl | inactive |  |
| CC1(c2ccc(NC(=O)c3ccccc3F)cc2)CC1(Cl)Cl (stereo unspecified) | inconclusive [inhibitor, single point] |  |
| CC1(NC(=O)CCc2ccccc2)CCN(CCCc2ccccc2)C1=O (stereo unspecified) | inconclusive [inhibitor, single point] |  |
| CCC(CC)NCCOC(=O)c1ccc([N+](=O)[O-])cc1 | inactive |  |
| O=C(NCC(c1ccco1)N1CCc2ccccc2C1)c1ccccc1Br (stereo unspecified) | inconclusive [inhibitor, single point] |  |
| O=C(CN1CCN(S(=O)(=O)c2ccc(Cl)cc2)CC1)Nc1ccc2c(c1)CCC2 | inconclusive [inhibitor, single point] |  |

| SMILES | Potency | activity change, negative = growth inhibition |
| --- | --- | --- |
| COc1cc(-c2nc3sccn3c2Nc2c(C)cccc2C)ccc1O | inconclusive [inhibitor, single point] |  |
| COc1ccc(C2(C(=O)NCc3ccco3)CCCC2)cc1OC | inconclusive [inhibitor, partial curve, poor fit] |  |
| CCCCN(CCCC)CCCNC(=O)C12CN(Cc3ccccc3)CC1C(c1cccc([N+](=O)[O-])c1)=NO2 (stereo unspecified) | inconclusive [inhibitor, single point] |  |
| Cc1ccc(-c2nc(CS(=O)CC(=O)NC3CCC(C)CC3)c(C)o2)cc1 (stereo unspecified) | inconclusive [inhibitor, single point] |  |
| CC1Cc2ccccc2N1C(=O)CSc1nnc2c(n1)[nH]c1ccc(F)cc12 (stereo unspecified) | active: 20.6 µM |  |
| O=c1[nH]nc(-c2ccc([N+](=O)[O-])o2)c(=O)[nH]1 | inactive |  |
| O=C(Nc1ncc2c(n1)-c1ccccc1CC2)c1ccc(F)cc1 | inconclusive [inhibitor, single point] |  |
| COc1ccccc1/C=C1\S/C(=N/NC(=O)c2cccc(Br)c2)NC1=O | active: 20.6 µM |  |
| CCn1c(C(=O)NCCc2ccc(S(N)(=O)=O)cc2)cc2sc(Cl)cc21 | inconclusive [inhibitor, partial curve] |  |
| CC(=O)N1CCCc2ccc(NS(=O)(=O)c3cccc(Cl)c3)cc21 | inactive |  |
| COc1ccc(-c2csc(N(CCCN(C)C)C(=O)c3ccc(F)cc3)n2)cc1 | inconclusive [inhibitor, single point] |  |
| O=C1Cc2cc(S(=O)(=O)N3CCN(c4cccc(Cl)c4)CC3)ccc2N1 | inactive |  |
| Cc1ccc(-n2c(Cc3cccc4ccccc34)n[nH]c2=S)c(C)c1 | inconclusive [inhibitor, single point] |  |
| CC(=O)C1=CCC(c2ccc(Br)cc2)N(S(=O)(=O)c2ccc(C)cc2)C1 (stereo unspecified) | inconclusive [inhibitor, single point] |  |
| CCC(C)Cn1cnc2c(SCc3ccccn3)nc(N)nc21 (stereo unspecified) | inconclusive [inhibitor, single point] |  |
| C[C@@H]1CN([C@@H](C)CO)C(=O)CCCn2nncc2CO[C@@H]1CN(C)S(=O)(=O)c1cccs1 |  | inconclusive: -26.2% [inhibitor] |
| Cc1cc(NC(=O)c2sc3ccccc3c2O)no1 | inconclusive [inhibitor, partial curve] |  |
| CC(=O)N1CCCC1c1nc2ccccc2n1Cc1ccccc1Cl (stereo unspecified) | active: 18.4 µM |  |
| C=CC[C@@H](CC(=O)N(CCO)Cc1ccccc1)C(=O)N[C@H](COC(=O)[C@@H](CC=C)Cc1ccc(F)cc1)C(C)(C)C | active: 13 µM |  |
| Nc1cc(N)nc(SCC(=O)Nc2ccc(Br)cc2Cl)n1 | inconclusive [inhibitor, partial curve, poor fit] |  |
| COc1ccc(-c2ccc3c(c2)S(=O)(=O)c2cccc(C(=O)NCc4ccccc4Cl)c2C3=O)cc1OC | active: 14.6 µM |  |
| O=C(Nc1ccc2c(c1)OCCO2)C1CCCN(S(=O)(=O)c2cccc3nsnc23)C1 (stereo unspecified) | inconclusive [inhibitor, single point] |  |
| Cc1ccccc1CSCC(=O)Nc1ccccc1-c1ccccc1 | inconclusive [inhibitor, full curve, poor fit] |  |
| Cc1nn2c(Nc3ccc(F)cc3)c3c(nc2c1-c1ccccc1)CCC3 | inactive |  |

| SMILES | Potency | activity change, negative = growth inhibition |
| --- | --- | --- |
| CC1(C(=O)NS(=O)(=O)c2ccc(Cl)cc2)CCN1C(=O)CCC1CCCC1 (stereo unspecified) | inactive |  |
| CCOc1ccc(-c2nnc3ccc(SCC(=O)Nc4nc5ccc(C)cc5s4)nn23)cc1 | active: 25.9 µM |  |
| O=C(/C=C/c1ccc(Cl)cc1Cl)NCCSCc1ccccc1 | inactive |  |
| O=C(Nc1ncccc1O)c1ccc(Oc2ccccc2)cc1 | inconclusive [inhibitor, single point] |  |
| COc1ccc(NC(=O)c2ccc(OCc3c(C)noc3C)c(OC)c2)cn1 | inconclusive [inhibitor, single point] |  |
| CCc1c(O)nc(SCC(=O)Nc2c(C)cccc2C)n(-c2ccc(F)cc2)c1=O | inactive |  |
| O=C(CN1CCN(c2ccc(O)cc2)CC1)Nc1cc(S(=O)(=O)N2CCOCC2)ccc1Cl | active: 13 µM |  |
| Cc1cccc(OCc2nc(CC(=O)Nc3ccc(Cl)cc3)cs2)c1 | inconclusive [inhibitor, single point] |  |
| O=C(NCc1ccc(F)cc1)C1CCN(S(=O)(=O)N2CCCC2)CC1 | active: 16.4 µM |  |
| CCC1CN(C(=O)N2CCC(C(=O)NCCc3ccc(OC)cc3OC)CC2)c2cc(C)ccc2O1 (stereo unspecified) | active: 16.4 µM |  |
| Nc1[nH]c(N=NC(=O)c2ccccc2)c2ccccc12 | inactive |  |
| CC(C)CNC(=O)c1ccccc1Oc1ccccc1 | inconclusive [inhibitor, single point] |  |
| Cc1cccc(C)c1-n1ncc(C(=O)NCCCN2CCC(C)CC2)c1C1CCN(C(=O)OC(C)(C)C)CC1 | active: 20.6 µM |  |
| Cc1cc(Nc2ccc(Br)cc2)nc(C)n1 | inconclusive [inhibitor, single point] |  |
| CCc1nnc(NC(=O)c2sc3nc4cc(C)ccc4cc3c2N)s1 | active: 2.91 µM |  |
| COc1ccc2oc(=O)cc(-c3cc4ccccc4o3)c2c1 | inactive |  |
| CCOc1ccc(CN2C(=O)CCC2(C)C(=O)NCc2cccnc2)cc1 (stereo unspecified) | inconclusive [inhibitor, partial curve] |  |
| COc1cc2c(c(OC)c1OC)-c1ccc(NC(=O)c3ccc(F)cc3)c(=O)cc1[C@@H](NC(C)=O)CC2 | active: 7.31 µM |  |
| COc1ccc(S(=O)(=O)Nc2ccc3c(c2)C(=O)N([C@H](C)CO)C[C@@H](C)[C@@H](CN(C)S(=O)(=O)c2ccc(Cl)cc2)O3)cc1 | inconclusive [inhibitor, single point] |  |
| O=C(Nc1ccc(N2CCCC2)c(Cl)c1)c1ccc(Br)o1 | inconclusive [inhibitor, single point] |  |
| CC(C)(C)c1ccc(C(=O)C[n+]2ccccc2Cl)cc1 | inconclusive [inhibitor, partial curve] |  |
| CSc1n[nH]c(-c2ccco2)n1 | inactive |  |
| C=CC(=O)NN(C)c1ncc(C(F)(F)F)cc1Cl | inconclusive [inhibitor, single point] |  |
